Substrate in this data set: NC(=O)c1ccc[n+]([C@@H]2O[C@H](COP(=O)(O)OP(=O)(O)OC[C@H]3O[C@@H](n4cnc5c(N)ncnc54)[C@H](O)[C@@H]3O)[C@@H](O)[C@H]2O)c1
Put plainly: purified protein. Format: biochemical, Cupriavidus necator. The settings on record: 50% H2, 50% N2 (no O2 or CO), 200 mM Kpi pH 6.5, NAD+ 0-4 mM, free enzyme.

B1: ReSH (Cupriavidus necator H16) (protein)
chain: MDSRITTILERYRSDRTRLIDILWDVQHEYGHIPDAVLPQLGAGLKLSPLDIRETASFYHFFLDKPSGKYRIYLCNSVIAKINGYQAVREALERETGIRFGETDPNGMFGLFDTPCIGLSDQEPAMLIDKVVFTRLRPGKITDIIAQLKQGRSPAEIANPAGLPSQDIAYVDAMVESNVRTKGPVFFRGRTDLRSLLDQCLLLKPEQVIETIVDSRLRGRGGAGFSTGLKWRLCRDAESEQKYVICNADEGEPGTFKDRVLLTRAPKKVFVGMVIAAYAIGCRKGIVYLRGEYFYLKDYLERQLQELREDGLLGRAIGGRAGFDFDIRIQMGAGAYICGDESALIESCEGKRGTPRVKPPFPVQQGYLGKPTSVNNVETFAAVSRIMEEGADWFRAMGTPDSAGTRLLSVAGDCSKPGIYEVEWGVTLNEVLAMVGARDARAVQISGPSGECVSVAKDGERKLAYEDLSCNGAFTIFNCKRDLLEIVRDHMQFFVEESCGICVPCRAGNVDLHRKVEWVIAGKACQKDLDDMVSWGALVRRTSRCGLGATSPKPILTTLEKFPEIYQNKLVRHEGPLLPSFDLDTALGGYEKALKDLEEVTR
notes: five bands HoxF 68,110 Da, HoxH 54,863 Da, HoxU 26,173 Da, HoxY 22,881 Da, HoxI 18,567 Da; with NAD-reducing hydrogenase HoxS subunit gamma (diaphorase); NAD-reducing hydrogenase HoxS subunit delta; NAD-reducing hydrogenase HoxS subunit beta; NAD-reducing hydrogenase subunit HoxI
In general, kcat refers to the number of substrate molecules converted per active site and unit of time at saturation. The kcat/Km is the turnover number divided by the Michaelis constant. With B1, the Km is given as 1,179.4 ± 47.1 μM, the kcat was found to be 55.2 ± 0.82 s⁻¹ and the kcat/Km was 46800 ± 2000 M⁻¹ s⁻¹.
